{"source": "PubChem BioAssay AID588453", "about": "(National Center for Advancing Translational Sciences (NCATS), 2011)", "note": "Values joined by “and” are separate entries in the source; they are usually repeats but may differ in a detail not shown here. Equal values may be shown once. About 4,000 (1%) of roughly 390,000 compounds were called active. Inconclusive means that the source gave no clear call. Such entries were picked first, then a sample of the others. Calls come from the whole dose curve; as a rule, active = well fitted inhibition curve with a large enough effect; inconclusive = small, poorly fitted or top-dose-only effect; inactive = no such curve, though single readings can be large or run the other way. Potencies of inconclusive entries are doubtful fits and often do not repeat. % is set by controls: 0 for no effect and ±100 for the full control effect; potency is the fitted concentration of half-maximal effect; tags give direction and shape of the fitted curve."}
{"target": "Thioredoxin reductase 1, cytoplasmic (Rattus norvegicus) (UniProt O89049)", "sequence (O89049 whole entry, looked up)": "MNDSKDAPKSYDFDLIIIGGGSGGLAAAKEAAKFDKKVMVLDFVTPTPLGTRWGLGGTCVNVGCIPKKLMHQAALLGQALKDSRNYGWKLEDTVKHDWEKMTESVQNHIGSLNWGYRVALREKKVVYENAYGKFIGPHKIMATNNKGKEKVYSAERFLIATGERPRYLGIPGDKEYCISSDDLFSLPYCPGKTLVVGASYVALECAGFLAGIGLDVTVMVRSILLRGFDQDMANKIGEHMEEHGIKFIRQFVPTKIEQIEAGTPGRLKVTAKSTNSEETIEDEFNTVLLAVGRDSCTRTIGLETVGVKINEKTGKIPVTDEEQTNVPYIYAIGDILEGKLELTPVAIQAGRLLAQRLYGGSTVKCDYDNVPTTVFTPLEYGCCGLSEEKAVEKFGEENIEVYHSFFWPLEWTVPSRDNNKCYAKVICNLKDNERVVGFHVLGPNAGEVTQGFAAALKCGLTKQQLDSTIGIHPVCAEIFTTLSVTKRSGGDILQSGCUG", "experiment": "qHTS Assay for Inhibitors of Mammalian Selenoprotein Thioredoxin Reductase 1 (TrxR1): qHTS; note: nearly all actives have a fitted effect of over 65% in size", "conditions": "recombinant rTrxR1, NADPH fluorescence consumption, selenite substrate; series mostly up to 114 µM; activity change, negative = inhibition: at the top concentration", "in_short": "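Rat TrxR1 (90 nM in the dispensed reagent) was pre-reduced with 400 uM NADPH for 5 min at room temperature, then incubated with compound for 15 min. After 400 uM selenite was added, NADPH fluorescence (Ex 340/Em 450 nm) was followed for 8 min.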"}
{"smiles": "Cc1[nH]n(-c2ccc(Cl)cc2)c(=O)c1C(=O)c1ccccc1", "activity change, negative = inhibition": "inactive: 6.94% [at 57.1 µM]"}
{"smiles": "COc1ccc(NCc2cccn2-c2nnc(N3CCCCC3)s2)cc1OC", "Potency": "inconclusive: 56.2 µM [inhibitor, partial curve, poor fit]"}
{"smiles": "O=C(O)c1ccc(N/N=C/C(Br)=C/c2ccccc2)cc1", "Potency": "active: 31.6 µM"}
{"smiles": "BrC(/C=N/Nc1nc(N2CCOCC2)nc(N2CCOCC2)n1)=C/c1ccccc1", "Potency": "inconclusive: 63.1 µM [inhibitor, single point]"}
{"smiles": "CCOc1ccc(-c2nnc3ccc(SCc4ccc(C(=O)OC)o4)nn23)cc1", "Potency": "inconclusive: 28.2 µM [inhibitor, full curve]"}
{"smiles": "Cc1ccc(C(=O)CSc2nn3c(=O)c(C(C)(C)C)nnc3s2)cc1", "Potency": "inconclusive: 2 µM [inhibitor, full curve, poor fit]"}
{"smiles": "COc1ccc(NC(=O)CSc2nc3c(oc4ccccc43)c(=O)n2Cc2ccco2)cc1Cl", "activity change, negative = inhibition": "inactive: 16.6%"}
{"smiles": "O=C(N1CCCCC1)N1CCN(C(c2ccccc2)c2ccccc2)CC1", "activity change, negative = inhibition": "inactive: 8.75% [at 57.1 µM]"}
{"smiles": "N/C(=N\\S(=O)(=O)c1ccccc1)c1ccc([N+](=O)[O-])cc1", "Potency": "inconclusive: 39.8 µM [inhibitor, partial curve, poor fit]"}
{"smiles": "Cc1ccc(-c2cn3c(n2)sc2cc(C(=O)NCCC4=CCCCC4)ccc23)cc1", "activity change, negative = inhibition": "inactive: 2.81%"}
{"smiles": "CCOc1cc2[nH]c(=S)n(CC3CCCO3)c(=O)c2cc1OCC", "note": "(stereo not drawn)", "activity change, negative = inhibition": "inactive: -11% [at 57.1 µM]"}
{"smiles": "COc1ccc(N(Cc2cc3cccc(C)c3[nH]c2=O)C(=O)c2cccc(Cl)c2)cc1", "activity change, negative = inhibition": "inactive: 26%"}
{"smiles": "COc1ccc2c(c1)OC1=C(C(=O)CCC1)C2C1=C(O)CCCC1=O", "note": "(stereo not drawn)", "Potency": "inconclusive: 25.1 µM [inhibitor, partial curve]"}
{"smiles": "O=[N+]([O-])c1cccc2c(Br)[nH]nc12", "Potency": "inconclusive: 56.2 µM [inhibitor, partial curve] and inconclusive: 447 nM [inhibitor, full curve, poor fit]"}
{"smiles": "COc1ccc(S(=O)(=O)Nc2cc3c4c(c2)C(C)C(=O)N4CCC3)cc1OC", "note": "(stereo not drawn)", "Potency": "inconclusive: 22.4 µM [inhibitor, partial curve, poor fit]"}
{"smiles": "Cc1ccc(C)c2[nH]c(=O)c(CN(Cc3nnnn3C3CCCCC3)CC3CCCO3)cc12", "note": "(stereo not drawn)", "Potency": "inconclusive: 22.4 µM [inhibitor, partial curve, poor fit]"}
{"smiles": "Cn1c(=O)oc2cc(S(=O)(=O)NC3CCCCCCC3)ccc21", "activity change, negative = inhibition": "inactive: 4.14%"}
{"smiles": "O=C(c1ccccc1)N1CCN(C(=O)c2nn3c(C(F)(F)F)cc(-c4ccco4)nc3c2Br)CC1", "Potency": "inconclusive: 56.2 µM [inhibitor, single point]"}
{"smiles": "CC(C)c1ccccc1OS(N)(=O)=O", "activity change, negative = inhibition": "inactive: -7.88%"}
{"smiles": "Cc1cc2cc(C(c3nnnn3Cc3ccco3)N3CCc4ccccc43)c(=O)[nH]c2cc1C", "note": "(stereo not drawn)", "Potency": "inconclusive: 25.1 µM [inhibitor, single point]"}
{"smiles": "CNC(=O)/C(C#N)=C/c1cccc(Oc2ccccc2)c1", "Potency": "inconclusive: 17.8 µM [inhibitor, partial curve, poor fit]"}
{"smiles": "COC(=O)c1ccc(C(=O)N2CCCC(Nc3ccc(C(C)C)cc3)C2)cc1", "note": "(stereo not drawn)", "activity change, negative = inhibition": "inactive: -7.42%"}
{"smiles": "CSc1nnc(NC(=O)c2nc(S(=O)(=O)Cc3ccccc3F)ncc2Cl)s1", "Potency": "active: 39.8 µM"}
{"smiles": "O=C(O)CCCN1C(=O)/C(=C\\C(Cl)=C\\c2ccccc2)SC1=S", "Potency": "inconclusive: 50.1 µM [inhibitor, partial curve]"}
{"smiles": "COc1ccc(S(=O)(=O)NCC(=O)NC2CC2)cc1OC", "Potency": "inconclusive: 22.4 µM [inhibitor, single point]"}
{"smiles": "Cc1ccc(S(=O)(=O)/N=C(/NC(=S)Nc2ccccc2)c2ccccc2)cc1", "Potency": "active: 8.91 µM"}
{"smiles": "CSCCC(=O)Nc1ccc(C(C)=O)cc1", "Potency": "inconclusive: 22.4 µM [inhibitor, partial curve, poor fit]"}
{"smiles": "CN1CCN(C2=Cc3cc(Cl)ccc3Sc3cc(F)ccc32)CC1", "Potency": "inconclusive: 31.6 µM [inhibitor, partial curve]"}
{"smiles": "O=C(Nc1ccc(C(F)(F)F)cc1)c1cccnc1N1CCOCC1", "Potency": "inconclusive: 31.6 µM [inhibitor, partial curve, poor fit]"}
{"smiles": "[N-]=[N+]=NC[C@H](c1ccccc1)N1CCN(Cc2ccccc2)CCC1=O", "Potency": "inconclusive: 25.1 µM [inhibitor, single point]"}
{"smiles": "CC(C)CC[n+]1ccccc1/C=C/c1ccc(N(C)C)cc1", "activity change, negative = inhibition": "inactive: -3.45%"}
{"smiles": "CC(C)C(=O)Nc1cccc(NC(=S)NC(=O)c2ccc([N+](=O)[O-])cc2)c1", "Potency": "inconclusive: 20 µM [inhibitor, single point]"}
{"smiles": "CCCCc1ncc(CN2CCC(n3nccc3NC(=O)c3ccccc3OC)CC2)[nH]1", "Potency": "inconclusive: 70.8 µM [inhibitor, single point]"}
{"smiles": "Cc1nn(-c2ccc(Cl)cc2)c2[nH]c(=O)c(CNCc3ccc4c(c3)OCO4)cc12", "Potency": "active: 22.4 µM"}
{"smiles": "Cc1ccc(-n2nc(CO)c(C(=O)NC(C)CCCc3ccccc3)n2)cc1C", "note": "(stereo not drawn)", "activity change, negative = inhibition": "inactive: 16.2%"}
{"smiles": "CN(C)/C=C(\\C(=O)c1ccc(F)cc1F)c1nnnn1-c1ccccc1", "activity change, negative = inhibition": "inactive: -17%"}
{"smiles": "COc1ccc(NC(=O)c2ccc3nc(CCc4ccccc4)oc3c2)c(OC)c1", "activity change, negative = inhibition": "inactive: 22.7% [at 57.1 µM]"}
{"smiles": "COc1cc(/C=N/Nc2ccc(F)cc2F)cc(OC)c1O", "Potency": "inconclusive: 20 µM [inhibitor, partial curve, poor fit]"}
{"smiles": "CC(C)C(c1nnnn1Cc1ccco1)N1CCN(c2nc3ccccc3s2)CC1", "note": "(stereo not drawn)", "Potency": "inconclusive: 28.2 µM [inhibitor, full curve, poor fit]"}
{"smiles": "CCOC(=O)c1ccc(CNC(=O)C2CCC(=O)N(Cc3cccc(OC)c3)C2)o1", "note": "(stereo not drawn)", "Potency": "inconclusive: 89.1 µM [inhibitor, single point]"}
{"smiles": "O=S(=O)(NCc1nnc2c(C(F)(F)F)cc(Cl)cn12)c1ccccc1", "activity change, negative = inhibition": "inactive: 2.89%"}
{"smiles": "Cc1ccc(-c2nc3cnccn3c2Nc2c(C)cccc2C)o1", "Potency": "active: 14.1 µM"}
{"smiles": "Cc1c(Cl)cccc1NC(CC(=O)c1ccccc1)C(=O)OCC(=O)c1cccs1", "note": "(stereo not drawn)", "Potency": "active: 39.8 µM"}
{"smiles": "O=C(C1=C[C@@H]2[C@H]3C(=O)N(c4cccc(Cl)c4)C(=O)[C@H]3[C@@H](C(=O)c3ccc(Cl)cc3)N2C=C1)c1ccccc1", "Potency": "active: 50.1 µM"}
{"smiles": "CC1(C2CCC3(C)OC3C2)CO1", "note": "(stereo not drawn)", "Potency": "inconclusive: 0.631 µM [inhibitor, full curve, poor fit]"}
{"smiles": "N#CC(C#N)=C(N)/C(C#N)=C/c1cc(O)c(O)c(O)c1", "Potency": "inconclusive: 79.4 µM [inhibitor, partial curve, poor fit]"}
{"smiles": "C#CC(=O)N(c1cccc(OC)c1)C(C(=O)NC1CCCC1)c1cccs1", "note": "(stereo not drawn)", "Potency": "inconclusive: 1.78 µM [inhibitor, full curve, poor fit]"}
{"smiles": "CCOc1cc(/C=N/Nc2cc(C)nc(-n3nc(C)cc3C)n2)ccc1O", "activity change, negative = inhibition": "inactive: 1.84%"}
{"smiles": "Cc1c(NC(=O)Nc2ccc(Br)cc2F)sc2nc3n(c(=O)c12)CCC(C)CC3", "note": "(stereo not drawn)", "activity change, negative = inhibition": "inactive: 28.7%"}
{"smiles": "CCOC(=O)C(C)(C)NS(=O)(=O)c1ccc(Cl)c([N+](=O)[O-])c1", "Potency": "inconclusive: 31.6 µM [inhibitor, partial curve]"}
{"smiles": "O=C(Nc1nccs1)[C@@H]1CC=C[C@@H]2CCN(C3CCCCC3)C(=O)[C@@H]21", "Potency": "inconclusive: 89.1 µM [inhibitor, single point]"}
{"smiles": "N#Cc1nc(-c2cccs2)oc1N1CCOCC1", "Potency": "inconclusive: 63.1 µM [inhibitor, single point]"}
{"smiles": "CCOC(=O)C1=C(N)OC2=C(C(=O)CC(C)(C)C2)C1c1ccco1", "note": "(stereo not drawn)", "Potency": "inconclusive: 89.1 µM [inhibitor, single point]"}
{"smiles": "COc1cc(/C=C2/C(=O)ON=C2C)ccc1OCc1ccccc1F", "Potency": "inconclusive: 4.47 µM [inhibitor, partial curve]"}
{"smiles": "Cc1cc(C)nc(Sc2ncnc(N)c2[N+](=O)[O-])n1", "Potency": "active: 11.2 µM"}
{"smiles": "COc1cc(OC)c(C(=O)C=Cc2ccc(OC)c(OC)c2)c(OC)c1", "Potency": "inconclusive: 70.8 µM [inhibitor, partial curve, poor fit]"}
{"smiles": "O=[N+]([O-])c1ccc(N2N=C(c3ccco3)CC2c2ccccc2)cc1", "note": "(stereo not drawn)", "Potency": "inconclusive: 35.5 µM [inhibitor, partial curve, poor fit]"}
{"smiles": "COc1ccccc1-c1cc(SC)c(C#N)c(=O)o1", "Potency": "inconclusive: 70.8 µM [inhibitor, partial curve]"}
{"smiles": "Cc1ccc(NC(=O)/C(=C\\c2ccco2)NC(=O)c2ccco2)cc1", "Potency": "inconclusive: 25.1 µM [inhibitor, single point]"}
{"smiles": "Cc1ccc(-n2c(C)cc(/C=N/NC(=O)CC3(C)OCCO3)c2C)c(C)c1", "Potency": "inconclusive: 15.8 µM [inhibitor, partial curve, poor fit]"}
{"smiles": "O=C(NCCc1ccccc1)C(=O)NCC1OCCCN1S(=O)(=O)c1cc(F)ccc1F", "note": "(stereo not drawn)", "Potency": "inconclusive: 89.1 µM [inhibitor, partial curve, poor fit]"}
{"smiles": "O=C(NC(=S)Nc1cccnc1)c1cc2ccccc2o1", "Potency": "inconclusive: 28.2 µM [inhibitor, single point]"}
{"smiles": "S=c1[nH]ncn1/N=C/c1ccc(N2CCOCC2)cc1", "Potency": "inconclusive: 8.91 µM [inhibitor, full curve, poor fit]"}
{"smiles": "COc1cc(/C=c2\\[nH]c(=O)/c(=C/c3cc(OC)c(OC)c(OC)c3)[nH]c2=O)cc(OC)c1OC", "activity change, negative = inhibition": "inactive: 15%"}
{"smiles": "O=S(=O)(Nc1ccc2nc(-c3ccco3)[nH]c2c1)c1ccccc1", "Potency": "active: 56.2 µM"}
{"smiles": "CC(=O)Nc1ccc(NC(=O)c2nc(S(=O)(=O)Cc3cccc(C)c3)ncc2Cl)cc1", "Potency": "active: 10 µM"}
{"smiles": "Cc1cc(C)cc(-n2cc[nH]c2=S)c1", "activity change, negative = inhibition": "inactive: -5.88% [at 57.1 µM]"}
{"smiles": "CC(Sc1nnc(Cc2cccs2)n1C1CCCCC1)C(=O)NCc1ccco1", "note": "(stereo not drawn)", "Potency": "inconclusive: 56.2 µM [inhibitor, partial curve, poor fit]"}
